Measurements: PubChem BioAssay AID1347073 (National Center for Advancing Translational Sciences (NCATS), 2019)
Hit rate of the full screen: of about 45,000 compounds, about 200 (0.44%) were called active. The shares of active, inactive and inconclusive entries below differ from those in the screen. The call rests on the fitted dose curve; in most records, active means well fitted activation curve with a large enough effect; inconclusive means small, poorly fitted or top-dose-only effect; inactive means no such curve, though single readings can be large or run the other way. A potency beside an inconclusive call is a rough fit, not a confirmed value.
Potency means the concentration at half of the fitted maximal effect; tags describe the fitted curve by direction and shape.

Test: qHTS of TDP-43 Inhibitors: NCGC Sytravon Library Screen; further: nearly all actives have a fitted effect of over 55% in size; on growth rescue (activation): 0% is about no effect
Settings: yeast TDP-43 toxicity rescue, BacTiter-Glo growth, 24 h; growth rescue (activation): at 46.1 µM (top of the series)
How it was run: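 TDP-43-expressing yeast, pregrown in raffinose, seeded at OD600 0.02 in galactose medium with compound for 24 hr at 30 deg C. Growth read by BacTiter-Glo luminescence, so rescue of toxicity appears as activation.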
With `O=C(Nc1cccc(S(=O)(=O)C(F)F)c1)c1ccc(S(=O)(=O)N2CCCC2)cc1` the growth rescue (activation) was inconclusive: -28.6% [activator].
For `COc1cccc(-c2nc(NCC3CCCO3)c3ccccc3n2)c1O` (stereo unspecified), the Potency was inconclusive: 22.4 µM [activator, partial curve, poor fit].
In the case of `CC(=O)N1CCN(c2nc(CC(C)C)c3c(c2C#N)CCC3)CC1`, the Potency is reported as inconclusive: 15.8 µM [activator, single point].
With `CCCCNC(=S)N=Nc1c(O)[nH]c2ccccc12` the Potency was inconclusive: 35.5 µM [activator, single point].
With `O=C(COC(=O)c1c(Cl)cccc1Cl)NC1CCCCC1` the Potency was inconclusive: 10 µM [activator, partial curve].
In the case of `Cc1cnnn1-c1ccc([N+](=O)[O-])cc1`, the Potency is reported as “inactive”.
In the case of `Cc1ccc(S(=O)(=O)N2CCN(c3ncnc4sccc34)CC2)cc1C`, the Potency is reported as inconclusive: 17.8 µM [activator, single point].
For `COc1ccc(OCCC(=O)NCC23CC4CC(CC(C4)C2)C3)cc1`, the Potency was inconclusive: 35.5 µM [activator, single point].
In the case of `COCCNc1nc(NCc2cccc(OC)c2OC)c2sccc2n1`, the Potency is reported as “inactive”.
With `COc1ccc(OC)c(S(=O)(=O)N2CCC(C(=O)N3CCc4ccccc4C3)CC2)c1` the Potency was inconclusive: 6.31 µM [activator, partial curve, poor fit].
For `Cc1cccc(C(=O)NC(=S)Nc2cccc3nc(C)ccc23)c1`, the Potency was inconclusive: 2.24 µM [activator, partial curve, poor fit].
With `CCOC(=O)N1CCC(N(CCOC)C(=S)Nc2cccc(SC)c2)CC1` the Potency was inconclusive: 35.5 µM [activator, single point].
With `Cc1cccnc1NC(=S)NC(=O)/C=C/c1ccccc1` the Potency was inconclusive: 11.2 µM [activator, partial curve, poor fit].
With `COc1ccc(CNc2ncnc3c2[nH]c2cc(OC)c(OC)cc23)cc1` the Potency was “inactive”.
For `O=S(=O)(Nc1ccc(Oc2ncccn2)c(Cl)c1)c1ccc(Cl)cc1`, the Potency was inconclusive: 7.94 µM [activator, single point].
For `COc1ccc(S(N)(=O)=O)cc1C(=O)NNC(=O)C1COc2ccccc2O1` (stereo unspecified), the Potency was “inactive”.
In the case of `CC1=C(C(=O)Nc2ccccc2)C(c2ccc[nH]2)n2ncnc2N1` (stereo unspecified), the Potency is reported as “inactive”.
In the case of `COCc1cc(C)nc(N/N=C/c2ccc(-c3ccc(Cl)cc3[N+](=O)[O-])o2)c1C#N`, the Potency is reported as “inactive”.
With `Cc1nc(Nc2nc(-c3ccccc3)cc(=O)[nH]2)nc2ccccc12` the Potency was inconclusive: 7.08 µM [activator, partial curve, poor fit].
For `COc1ccc(/C=C/C(=O)c2ccncc2)c2ccccc12`, the Potency was inconclusive: 17.8 µM [activator, single point].
With `CC1=C(C(=O)NCc2ccc(Cl)cc2)C2(CCC(C)CC2)OC1=O` (stereo unspecified) the Potency was inconclusive: 20 µM [activator, partial curve, poor fit].
With `COC(=O)c1cc2oc3ccccc3c2n1Cc1ccccc1Cl` the Potency was “inactive”.
In the case of `O=C(O)c1ccc(OCC(O)Cn2c3ccccc3c3ccccc32)cc1` (stereo unspecified), the Potency is reported as inconclusive: 11.2 µM [activator, partial curve].
For `COc1cccc(/C=C/C(=O)c2ccc[nH]2)c1`, the Potency was inconclusive: 15.8 µM [activator, single point].
For `CC(NC(=O)CCCOc1ccc(Cl)cc1)c1ccccc1` (stereo unspecified), the Potency was inconclusive: 15.8 µM [activator, single point].
In the case of `O=C(Nc1cccc(C(=O)O)c1)/C(=C\c1ccccc1)NC(=O)c1cccc2ccccc12`, the Potency is reported as “inactive”.
With `Cc1cccc(N2CCN(C(=O)c3csc4ccccc34)CC2C)c1` (stereo unspecified) the Potency was inconclusive: 17.8 µM [activator, partial curve, poor fit].
With `COc1ccc(-c2csc(C(C)(O)c3cccc(F)c3)n2)cn1` (stereo unspecified) the growth rescue (activation) was inconclusive: 135% [activator].
For `CCN(CC)C(=O)C12CC3CC(CC(Br)(C3)C1)C2`, the Potency was “inactive”.
In the case of `COc1ccccc1CNC(=O)c1n[nH]c2ccccc12`, the Potency is reported as inconclusive: 35.5 µM [activator, single point].
With `O=C(Nc1cccc2ccccc12)c1cccc(F)c1` the Potency was inconclusive: 14.1 µM [activator, partial curve, poor fit].
With `CCC(=O)/C=C1\Sc2ccccc2N1CC` the Potency was inconclusive: 35.5 µM [activator, single point].
For `CC1CN(CCOc2ccc([N+](=O)[O-])cc2)CC(C)O1` (stereo unspecified), the Potency was “inactive”.
With `COC(=O)c1ccc(Cl)c(NC(=O)CN2CCOCC2)c1` the growth rescue (activation) was inconclusive: -39.7% [activator].
With `COc1ccc(Cl)cc1CN1C(=O)C(Cc2ccccc2)ON=C1C` (stereo unspecified) the growth rescue (activation) was inconclusive: 58.6% [activator].
With `COc1ccc(NC(=O)CSc2ccc3c(c2)OCCO3)cc1` the growth rescue (activation) was inconclusive: 30.3% [activator].
For `O=C(NC(=S)N1CCCc2ccccc21)c1ccc(Br)cc1`, the Potency was inconclusive: 35.5 µM [activator, single point].
With `O=C(NCCc1ccc(Cl)cc1)C1COc2ccccc2O1` (stereo unspecified) the Potency was inconclusive: 14.1 µM [activator, single point].
In the case of `CCOC(=O)c1ccc(NC(=S)NNC(=O)C2(C)CC2(Cl)Cl)cc1` (stereo unspecified), the Potency is reported as inconclusive: 14.1 µM [activator, single point].
In the case of `Cc1cc(=O)[nH]c(SCC(=O)Nc2ccccc2[N+](=O)[O-])n1`, the Potency is reported as “inactive”.
For `OC(c1ccc(F)cc1)c1nc(-c2cnc3ccccc3c2)cs1` (stereo unspecified), the growth rescue (activation) was inconclusive: 52.7% [activator].
For `Cc1cccc(/C=N/NC(=O)c2ccccc2OCc2cccc(Br)c2)n1`, the Potency was inconclusive: 22.4 µM [activator, single point].
In the case of `Cc1ccc(CN(C(=O)COc2ccc(C)c(C)c2)C2CCS(=O)(=O)C2)o1` (stereo unspecified), the Potency is reported as “inactive”.
In the case of `CCOC(=O)N1CCN(c2c(N3CCN(c4ccc(F)cc4)CC3)c(=O)c2=O)CC1`, the Potency is reported as inconclusive: 22.4 µM [activator, single point].
For `CC(C)Oc1ccc(F)cc1-c1cc(C(=O)NCc2cccs2)[nH]n1`, the growth rescue (activation) was inconclusive: 194% [activator].
With `Fc1ccc(Nc2ncnc3sccc23)cc1` the Potency was active: 11.2 µM.
